Laboratory results from PubChem BioAssay AID662 (National Center for Advancing Translational Sciences (NCATS), 2007).
Hit rate of the full screen: of about 71,000 compounds, about 1,800 (2.5%) were called active. Inconclusive means that the source gave no clear call. Such entries were picked first, then a sample of the others. The call rests on the fitted dose curve; in most records, active means well fitted activation curve with a large enough effect in the signal ratio, with a control signal flat (not every such curve was filed as active); inconclusive means small, poorly fitted or top-dose-only effect, or effect the other way, or a change in a side signal; inactive means flat fitted curve, though single readings scatter; the % refers to the signal ratio. Where the call is inconclusive, the potency comes from a doubtful curve fit.

assay: Cell signaling CRE-BLA (Fsk stim); settings: CHO CRE-bla reporter (cAMP response element driving beta-lactamase), forskolin EC10, beta-lactamase ratio; activity change, negative = inhibition: at 38.2 µM (top of the series) unless noted; on activity change, negative = inhibition: % of control where 0% means no effect
Method in brief: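 Reporter-gene assay: CHO cells with beta-lactamase behind cAMP responsive elements, co-treated with compound and EC10 NKH 477 for 3 hours at 37 degrees Celsius. Activity came from the 460/530 nm CCF4 emission ratio.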
Potency means the concentration at half of the fitted maximal effect; tags describe the fitted curve by direction and shape.

SMILES	activity change, negative = inhibition	Potency
CCn1c(SCC(=O)N2CCN(c3ccccc3)CC2)nnc1-c1cc2cc(Cl)ccc2o1	inactive	
CCOC(=O)c1c(NC(N)=O)sc(C)c1C		inconclusive: 10 µM [rising, single point]
O=c1c(-c2cccc(Cl)c2)nc2cncnc2n1-c1ccccc1		inconclusive: 10 µM [rising, partial curve]
COC(=O)c1c(C)n(-c2ccccc2)c2ccc(O)cc12	inconclusive: 27.2%	
CCOC(=O)N1CCN(S(=O)(=O)c2ccc(F)c(C(=O)Nc3cccc(C)c3C)c2)CC1	inconclusive: 18.6%	
O=C(Cn1cnc2c(nnn2Cc2ccccc2)c1=O)N1CCCc2ccccc21	inactive	
C=CCn1c(=O)c2c(nc(-c3ccc(S(=O)(=O)O)cc3)n2C)n(C)c1=O	inactive	
Cc1onc(-c2ccccc2)c1C(=O)Nc1cc(C(F)(F)F)ccc1N1CCOCC1		inconclusive: 12.6 µM [rising, single point]
CC(NC(=O)COc1ccccc1)C(=O)NC1=NCCS1 (stereo not drawn)	inconclusive: -4.48% [at 7.6 µM]	
COCC(=O)N1CCC2(CC1)CCN(C(=O)Nc1cccc(F)c1)CC2	inactive	
O=S(=O)(c1cccs1)N1CN(Cc2cccs2)c2nc3ccccc3nc21	inconclusive: 4.3%	
N#CC1=C(N)Oc2n[nH]c(-c3ccc(F)cc3)c2C1c1cccnc1 (stereo not drawn)	inactive	
COc1ccc(NC(=O)c2nnn(Cc3cccc(F)c3)c2N)c(OC)c1	inactive	
O=C(CCCCC(=O)NCc1cccs1)NCc1cccs1	inactive	
NC(=O)c1cc[n+](CC2=C(C(=O)O)N3C(=O)[C@@H](NC(=O)[C@H](c4ccccc4)S(=O)(=O)[O-])[C@@H]3SC2)cc1	inactive	
CC(C)COCC1CC2(CC(C)C(=O)CC2=O)C(=O)O1 (stereo not drawn)	inactive	
COCCCN1CN(S(=O)(=O)c2ccc(Cl)cc2)c2nc3ccccc3nc21		inconclusive: 12.6 µM [rising, single point]
CCOc1ccccc1C1CC(=O)Nc2cc3c(cc21)OCCO3 (stereo not drawn)		active: 10 µM
N=c1c(C(=O)NC2CCCC2)cc2c(=O)n3ccccc3nc2n1CCN1CCOCC1		inconclusive: 6.31 µM [rising, single point]
C=CCn1c(SCC(=O)Nc2ccccc2OC)nnc1-c1ccccn1		inconclusive: 10 µM [rising, partial curve]
COc1cc(NC(=O)Nc2ccccc2OC)c(OC)cc1NC(=O)CN1CCCCC1		inconclusive: 12.6 µM [rising, single point]
CCn1c(Cc2ccccc2)nnc1SCC(=O)Nc1ccc(N2CCOCC2)c(Cl)c1	inactive	
CCOC(=O)c1cnc(-c2ccccc2)[nH]c1=O	inactive	
O=C1CCc2cc(S(=O)(=O)NCCC(=O)N3CCN(c4cccc(Cl)c4)CC3)ccc2N1	inconclusive: -13.3%	
CN(C)c1ccc(/C=C/c2cc[n+]([O-])cc2)cc1		inconclusive: 10 µM [falling, partial curve]
CCCCn1c(SCc2nnc(-c3ccccc3)o2)nc2c1c(=O)n(C)c(=O)n2C	inactive	
CCOC(=O)c1cnc(SCc2ccc(C)cc2)nc1N		inconclusive: 10 µM [rising, single point]

SMILES	activity change, negative = inhibition	Potency
CSc1nc(C)cc(Oc2ccc(=O)n(C)n2)n1	inconclusive: -1.27%	
O=C(c1cnccn1)N1CCC2(CCCN(Cc3nccs3)C2)CC1	inactive	
COCCn1c(=O)c(-c2ccc(OC)cc2)nc2cnc(Nc3ccccc3)nc21		active: 0.316 µM
COc1ccc(C)cc1NC(=O)CN(C)S(=O)(=O)c1cccs1	inconclusive: -6.93%	
O=C(CN1CCN(C(=O)c2ccco2)CC1)Nc1ccc(Cl)c(C(F)(F)F)c1	inconclusive: -13.5%	
CCn1c(N)c(C(=O)NCc2cccnc2)sc1=S		inconclusive: 5.01 µM [rising, single point]
COC(=O)NC1CSCC1OC(=O)CCN1C(=O)c2ccccc2C1=O (stereo not drawn)	inconclusive: 0.206%	
CCOc1cc(NC(=O)c2ccco2)c(OCC)cc1NC(=O)Cc1cccc(OC)c1		inconclusive: 10 µM [rising, partial curve]
CCOC(=O)c1cc2n(c1N)-c1ccccc1C2=O		inconclusive: 7.94 µM [rising, partial curve]
N#Cc1c(NC(=O)c2cc(C3CC3)on2)sc2c1CCC2		inconclusive: 12.6 µM [rising, single point]
COc1cccc(CNc2nn[nH]n2)c1OC	inconclusive: -8.83%	
O=C(NCC(c1cccnc1)N1CCN(c2ccccc2F)CC1)C1CCCCC1 (stereo not drawn)	inconclusive: -20.9%	
C[N+](C)(C)[C@H](Cc1c[nH]c(=S)[nH]1)C(=O)O	inactive: 9.84% [at 7.6 µM]	
OCCCNCc1ccncc1	inactive: -7.41% [at 7.6 µM]	
CC(C)c1nnc(NC(=O)c2cccs2)s1	inactive	
Cc1ccc(C(C)C)c(OCC(=O)Nc2ccc(N3CCN(S(C)(=O)=O)CC3)cc2)c1	inactive	
c1ccc2[nH]c(N3CCOCC3)nc2c1	inactive	
CCOC(=O)c1c(NC(=O)c2ccc(S(=O)(=O)N3CCOCC3)cc2)sc2c1CCN(C)C2		active: 15.8 µM
O=C(Nc1cccc2nsnc12)c1ccc2c(c1)OCCO2		inconclusive: 12.6 µM [rising, single point]
c1csc(-c2ncc3ccccn23)c1	inactive	
CC(=O)Nc1ccc(NC(=O)C2CCCN(c3nnc(-n4cccc4)s3)C2)cc1 (stereo not drawn)		inconclusive: 25.1 µM [rising, single point]
COc1cc([C@@H]2Oc3cc([C@H]4Oc5cc(O)cc(O)c5C(=O)[C@H]4O)ccc3O[C@H]2CO)ccc1O	inactive	
CN(C)Cc1c[nH]c2nc[nH]c(=O)c12	inactive: -1.59% [at 7.6 µM]	
COc1ccc([C@@H](Nc2ccccn2)c2cc(C(C)(C)C)cc(C(C)(C)C)c2O)cc1	inactive: 16.7% [at 7.6 µM]	
CCN(CC)CCCN1C(=O)C(=O)/C(=C(/O)c2ccc3c(c2)OCCO3)C1c1ccc(C)o1 (stereo not drawn)	inactive	
Nc1nc(COc2ccc3ccccc3c2)cs1	inconclusive: -14.4%	
